Assay results published in the supplement of paper PMC10126150.
Sequences with one replicate were seen in a single cluster, so their values are uncertain.

tested on: ATP; experiment: switch fluorescence ratio, 500 uM ATP over buffer (Cy3 cluster intensity, sum of 5 cycles each) (fold (ratio)); higher = stronger signal-on switching upon ATP binding; sequences stand for … in TCGTCGGCAGCGTCAGATGTGTATAAGAGACAGTTTTTTTTTTTTTTTTTTTTTTTTT…TC; conditions: aptamer strand: ATP DNA aptamer (quencher-CACCTGGGGGAGTATTGCGGAGGAAGG + anchor), 100 nM annealed; ATP concentration: 500 uM; one replicate
How it was run: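 Clusters with intensities outside 100-1000 RFU were excluded. The remaining Cy3-labelled switching-strand clusters on a modified Illumina MiSeq flow-cell had been annealed to 100 nM quencher-labelled ATP aptamer and imaged in selection buffer, then after 15 min with 500 uM ATP at 22 °C, for five cycles separated by NaOH stripping and re-annealing. The fluorescence ratio, averaged per switch-domain sequence, is each cluster's summed target-cycle Cy3 intensity over its summed buffer-cycle Cy3 intensity.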
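Note: ATP exposure 15 min at 22 °C before imaging.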

Row | Sequence | switch fluorescence ratio
1 | ATTGTCAGTA | 0.97
2 | ATTGTCCCGG | 0.968
3 | ATTGTGAGTT | 0.95
4 | ATTGTGGTTC | 0.974
5 | ATTGTGTTGG | 1.02
6 | ATTGTTCAA | 0.998
7 | ATTGTTTTCT | 1.02
8 | ATTT | 0.973
9 | ATTTAACATC | 1.05
10 | ATTTAACTCT | 1.03
11 | ATTTAAGTTC | 1.04
12 | ATTTACCCAA | 1.03
13 | ATTTAGAGGG | 0.987
14 | ATTTAGTCGG | 0.965
15 | ATTTATAAAA | 0.974
16 | ATTTATCCGT | 1.03
17 | ATTTCATAGT | 0.983
18 | ATTTCATGGC | 1.08
19 | ATTTCCGGTC | 1.04
20 | ATTTCCTGTT | 0.991
21 | ATTTCGGCGT | 1.01
22 | ATTTCGGGGC | 0.963
23 | ATTTCGGGT | 1
24 | ATTTCGTGG | 0.967
25 | ATTTCTCCTG | 1.02
26 | ATTTCTGAGG | 1.17

Row | Sequence | switch fluorescence ratio
27 | ATTTCTTCTG | 0.962
28 | ATTTGAGGTC | 1.05
29 | ATTTGCACCG | 1.07
30 | ATTTGCGAAC | 1.06
31 | ATTTGCGGGT | 0.986
32 | ATTTGGACCC | 1.03
33 | ATTTGGACCG | 1.03
34 | ATTTGGCG | 1.03
35 | ATTTGGTCTT | 1
36 | ATTTGTGCTT | 0.978
37 | ATTTTAACAT | 1.02
38 | ATTTTACTAC | 1.05
39 | ATTTTACTTG | 0.962
40 | ATTTTCAGG | 0.989
41 | ATTTTCGACG | 1.06
42 | ATTTTCGAGA | 0.977
43 | ATTTTCGATT | 1.02
44 | ATTTTGAGCG | 0.983
45 | ATTTTGAGG | 0.949
46 | ATTTTGCGCA | 1
47 | ATTTTGCGGC | 0.954
48 | ATTTTGGGG | 1.03
49 | ATTTTGGTCT | 1.04
50 | ATTTTTAGG | 1.01
51 | ATTTTTCG | 1.03
52 | ATTTTTTTAC | 0.997

Row | Sequence | switch fluorescence ratio
53 | CAAAAAAATT | 0.974
54 | CAAAAAGTAA | 1.02
55 | CAAAACGCCC | 1.13
56 | CAAAACTTTA | 0.975
57 | CAAAAGTCAA | 1.03
58 | CAAAATGAGA | 0.984
59 | CAAAATGTAA | 0.975
60 | CAAACAAAGC | 1.03
61 | CAAACAAATA | 1.02
62 | CAAACAGTTG | 0.974
63 | CAAACCTTGA | 1.43
64 | CAAACGTACA | 1.79
65 | CAAACTTCCA | 1.18
66 | CAAAGACCGT | 0.992
67 | CAAAGAGACA | 1.01
68 | CAAAGATCTG | 1.02
69 | CAAAGATGTT | 0.988
70 | CAAAGATTGG | 0.978
71 | CAAAGGAGGA | 1.04
72 | CAAAGGTGTG | 1.01
73 | CAAAGTCACG | 1.05
74 | CAAAGTCCCA | 0.99
75 | CAAAGTCGTG | 0.968
76 | CAAAGTTATG | 0.988
77 | CAAAGTTCCG | 0.994
78 | CAAATCCAGC | 0.979

Row | Sequence | switch fluorescence ratio
79 | CAAATCGGGT | 1
80 | CAAATGCTGA | 0.991
81 | CAAATTGGCA | 1.01
82 | CAAATTTAGC | 1.03
83 | CAAATTTGTG | 1.02
84 | CAACAAAAAT | 0.911
85 | CAACACATGC | 1.21
86 | CAACCAAAG | 1.02
87 | CAACCAAGAA | 1.1
88 | CAACCCCAGA | 1.22
89 | CAACCTACTA | 1.17
90 | CAACGAATG | 0.993
91 | CAACGAGACG | 1
92 | CAACGGCACG | 1.01
93 | CAACGTACCG | 1.27
94 | CAACTATTAG | 1.01
95 | CAACTCATC | 1.04
96 | CAACTGGCAA | 1.87
97 | CAACTGGTGT | 1.13
98 | CAACTTAAGA | 1.01
99 | CAACTTACAC | 1.32
100 | CAACTTCAGG | 1.01
101 | CAACTTTGTG | 1.02
102 | CAAGAATATT | 1.01
103 | CAAGAATCTT | 0.996
104 | CAAGACCCGC | 1.07

Row | Sequence | switch fluorescence ratio
105 | CAAGACTCTC | 1.15
106 | CAAGAGCTGG | 1.01
107 | CAAGAGGTTG | 1.06
108 | CAAGATATTG | 0.948
109 | CAAGATGGGT | 0.995
110 | CAAGATTACA | 1.01
111 | CAAGCAGGTT | 1
112 | CAAGCGATTC | 1.82
113 | CAAGCTGGTG | 1.11
114 | CAAGGACAAA | 1
115 | CAAGGAGCTG | 0.985
116 | CAAGGAGTGC | 1.05
117 | CAAGGGACGT | 1.07
118 | CAAGGGCAAT | 1.94
119 | CAAGGGTACG | 1.06
120 | CAAGGGTCAG | 1.04
121 | CAAGGTGACG | 0.991
122 | CAAGGTGGAG | 0.998
123 | CAAGGTTCTC | 1.01
124 | CAAGTATGCA | 1.01
125 | CAAGTCAGTC | 0.98
126 | CAAGTGAGGA | 1.03
127 | CAAGTTCCAT | 0.984
128 | CAATAAAAGC | 1.01
129 | CAATAACTCG | 1.08
130 | CAATAAGGGA | 1.03

Row | Sequence | switch fluorescence ratio
131 | CAATAAGTCG | 0.974
132 | CAATAATTGA | 0.981
133 | CAATACTCGT | 2.17
134 | CAATAGGAGG | 0.943
135 | CAATAGGAGT | 1
136 | CAATAGGGAA | 0.954
137 | CAATATGTCA | 0.979
138 | CAATCCATGG | 0.999
139 | CAATCGTTAT | 0.947
140 | CAATGAATTT | 0.95
141 | CAATGACTTA | 1.05
142 | CAATGAGCCA | 1.01
143 | CAATGAGGGG | 1.06
144 | CAATGATGCA | 0.972
145 | CAATGGCATG | 0.968
146 | CAATGGCGTC | 1.01
147 | CAATGGGAGG | 0.954
148 | CAATGGTGTA | 1
149 | CAATGTATCG | 0.962
150 | CAATGTCTAG | 0.952
151 | CAATTATGGA | 0.988
152 | CAATTCGTGG | 0.975
153 | CAATTCTATC | 0.929
154 | CAATTGCACT | 1.02
155 | CAATTGGCG | 0.988
156 | CAATTGTACC | 1.08

Row | Sequence | switch fluorescence ratio
157 | CACAAAGATT | 1.03
158 | CACAAAGCGT | 1.03
159 | CACAAAGGTG | 1.98
160 | CACAACAGGA | 1.01
161 | CACAACTAGG | 1.11
162 | CACAACTGCA | 1.06
163 | CACAAGCCTG | 0.976
164 | CACAAGTAAT | 1.05
165 | CACAATCAGC | 1.05
166 | CACAATCCCG | 1.02
167 | CACAATTTGT | 1
168 | CACACATTGA | 0.979
169 | CACACCACTT | 1.32
170 | CACACCGGGT | 1.19
171 | CACACGCCTA | 1.11
172 | CACACGGGGT | 1.2
173 | CACACTACCC | 1.34
174 | CACACTCCCG | 1.25
175 | CACACTGTGT | 1.05
176 | CACACTTATC | 1.11
177 | CACAGACATC | 1.27
178 | CACAGGAGCC | 1.04
179 | CACAGGGCAC | 1.03
180 | CACAGGGGGC | 1.14
181 | CACAGGGGTT | 1.69
182 | CACAGTACCG | 1.21

Row | Sequence | switch fluorescence ratio
183 | CACAGTTTTT | 1.03
184 | CACATAAAA | 0.994
185 | CACATACCCG | 1.26
186 | CACATACTGT | 1.41
187 | CACATAGACT | 1.03
188 | CACATATTTA | 0.998
189 | CACATCGACA | 1.09
190 | CACATGCTTT | 0.985
191 | CACATGGCGG | 0.967
192 | CACATGGGGA | 1.04
193 | CACATGTGCT | 0.985
194 | CACATGTTC | 1.01
195 | CACATGTTGT | 0.981
196 | CACATTCATT | 1.02
197 | CACATTCGCG | 1.02
198 | CACCAAATCC | 1.07
199 | CACCAAGTGC | 1.23
200 | CACCACTTTA | 1.04
201 | CACCATGGGG | 1.03
